The record followed here is paper PMC4336329 (PLoS ONE, 2015).

In all, about 310,000 compounds went through this assay and about 2,200 (0.71%) showed an effect of 50% or more. The effect is printed as a negative number. The list shows a part of the results.

The test deals with human ether-à-go-go-related gene (hERG) potassium channel (human, UniProt Q12809). Briefly: primary screen, population patch clamp on CHO cells stably expressing hERG.
Chain of human ether-à-go-go-related gene (hERG) potassium channel (Q12809 whole entry, looked up): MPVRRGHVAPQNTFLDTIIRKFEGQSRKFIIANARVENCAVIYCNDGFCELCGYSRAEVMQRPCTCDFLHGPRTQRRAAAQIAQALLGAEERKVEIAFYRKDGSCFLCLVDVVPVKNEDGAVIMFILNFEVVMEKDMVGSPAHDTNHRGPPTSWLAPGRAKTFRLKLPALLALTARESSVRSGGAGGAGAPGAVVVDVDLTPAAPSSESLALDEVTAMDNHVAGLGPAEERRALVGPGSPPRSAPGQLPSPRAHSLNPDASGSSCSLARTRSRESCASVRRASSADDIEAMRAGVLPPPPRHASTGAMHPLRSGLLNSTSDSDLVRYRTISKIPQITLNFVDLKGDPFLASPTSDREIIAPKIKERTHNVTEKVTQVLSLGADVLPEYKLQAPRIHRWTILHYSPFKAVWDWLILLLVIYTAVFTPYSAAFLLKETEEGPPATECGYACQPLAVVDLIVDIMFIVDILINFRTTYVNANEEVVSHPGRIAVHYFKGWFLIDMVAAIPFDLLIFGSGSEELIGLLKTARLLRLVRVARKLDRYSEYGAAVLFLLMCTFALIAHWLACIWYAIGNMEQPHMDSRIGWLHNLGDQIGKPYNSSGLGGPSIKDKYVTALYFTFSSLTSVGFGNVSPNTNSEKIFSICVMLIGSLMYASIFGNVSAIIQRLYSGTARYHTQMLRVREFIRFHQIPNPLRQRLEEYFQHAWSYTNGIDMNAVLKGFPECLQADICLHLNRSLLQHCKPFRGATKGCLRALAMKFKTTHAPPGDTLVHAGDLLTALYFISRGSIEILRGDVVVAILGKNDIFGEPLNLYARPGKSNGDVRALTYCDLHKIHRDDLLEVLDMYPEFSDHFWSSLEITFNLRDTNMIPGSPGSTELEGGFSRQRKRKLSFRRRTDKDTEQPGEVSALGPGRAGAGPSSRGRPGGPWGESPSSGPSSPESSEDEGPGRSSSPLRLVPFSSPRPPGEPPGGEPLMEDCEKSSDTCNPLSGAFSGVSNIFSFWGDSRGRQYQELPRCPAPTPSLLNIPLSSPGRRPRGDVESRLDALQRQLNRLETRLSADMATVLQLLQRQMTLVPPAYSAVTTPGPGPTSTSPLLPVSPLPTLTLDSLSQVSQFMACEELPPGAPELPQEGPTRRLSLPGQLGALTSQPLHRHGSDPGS
As to `C/C(=C\c1ccccc1)C1Nc2cccc3cccc(c23)N1`, the “hERG current change (%, negative = inhibition) at 1uM” value amounted to 13.8%. On to `COc1ccc(CNC(=O)CSc2nnc3c(n2)[nH]c2ccc(OC)cc23)cc1`, for which the “hERG current change (%, negative = inhibition) at 1uM” value stood at 11.1%. For `Cc1ccc(CNC(=O)C2CCN(S(=O)(=O)N3CCCC3)CC2)cc1`, the “hERG current change (%, negative = inhibition) at 1uM” value stood at 9.35%. The result for `COc1ccc(OCCC(=O)OCC(=O)NCCc2ccccc2)cc1` reads 6.35%.

For the compound `COc1cc(/C=C/C(=O)OCC(=O)Nc2c(C)n(C)n(-c3ccccc3)c2=O)ccc1OCC#N`, the “hERG current change (%, negative = inhibition) at 1uM” value was found to be 15.8%. Take `CCC(C)NS(=O)(=O)c1ccc(OC)c(Cl)c1Cl` (stereo not drawn): the “hERG current change (%, negative = inhibition) at 1uM” value amounted to 10.2%. As to `Clc1nc2c(ccc3ccccc32)[nH]1`, the “hERG current change (%, negative = inhibition) at 1uM” value is -0.367%. As to `Cc1ccc(S(=O)(=O)N2CCCC2C(=O)Nc2ccc(O)cc2)cc1` (stereo not drawn), the “hERG current change (%, negative = inhibition) at 1uM” value is 5.75%.

On to `CC(C)(C)C(=O)COC(=O)CCc1nc2ccccc2[nH]c1=O`, for which the “hERG current change (%, negative = inhibition) at 1uM” value amounted to 17.5%.

On to `O=C(O)c1cccc(CN2C(=O)CSC2=O)c1`, for which the “hERG current change (%, negative = inhibition) at 1uM” value worked out at 14.7%. Regarding `N#Cc1ccccc1OCC(=O)OCC(=O)NC1CCCCCC1`, the “hERG current change (%, negative = inhibition) at 1uM” value stood at 7.72%. For `Cc1nc(CC(=O)Nc2nc(C(C)(C)C)cs2)cs1`, the “hERG current change (%, negative = inhibition) at 1uM” value was determined as 3.25%. For the compound `CCN(CC)CCn1c2c(c(SCC(=O)Nc3ccc4c(c3)OCO4)nc1=O)CCC2`, the “hERG current change (%, negative = inhibition) at 1uM” value is given as -4.69%. Consider `CCCCNC(=O)CSc1nnc(Cc2ccc(Cl)c(Cl)c2)c(=O)[nH]1`, for which the “hERG current change (%, negative = inhibition) at 1uM” value turned out to be 10.6%.

In the case of `COc1cc(CN(CC2CCCO2)C(=O)c2cccs2)cc(OC)c1OC` (stereo not drawn), the “hERG current change (%, negative = inhibition) at 1uM” value is listed as 15.7%. Take `Cl.Cn1c(=O)c2c(nc(N3CCCCC3)n2CCCNC2=NCCCC2)n(C)c1=O`: the “hERG current change (%, negative = inhibition) at 1uM” value was 9.98%. In the case of `CCn1nc(C)c(/C=N\NC(=O)c2cccc(OC)c2)c1C`, the “hERG current change (%, negative = inhibition) at 1uM” value amounted to 9.37%.

In the case of `OCCCc1cn(Cc2ccccc2)c2ccccc12`, the “hERG current change (%, negative = inhibition) at 1uM” value came out at 8.5%. The result for `CCS(=O)(=O)N1Cc2ccccc2CC1C(=O)Nc1nccs1` (stereo not drawn) reads 5.8%. Turning to `Cc1ccc(C(C(=O)NCc2ccc(F)cc2)N(C(=O)c2csnn2)C2CC2)cc1` (stereo not drawn), the “hERG current change (%, negative = inhibition) at 1uM” value was found to be 5.22%. For `CC(C)CN(Cc1cc(=O)oc2cc3c(cc12)CCCC3)CC(C)C`, the “hERG current change (%, negative = inhibition) at 1uM” value stood at 13.1%.

On to `O=c1c2ccccc2nc(N/N=C/c2ccccc2)n1O`, for which the “hERG current change (%, negative = inhibition) at 1uM” value is given as 1.41%. In the case of `CC1=Nc2ccc(C)c3nc(C)cc(c23)N1c1ccc(C)cc1`, the “hERG current change (%, negative = inhibition) at 1uM” value was 2.45%. Take `Cc1cc(C)c2cc(CN(Cc3cccs3)Cc3nnnn3CC3CCCO3)c(=O)[nH]c2c1` (stereo not drawn): the “hERG current change (%, negative = inhibition) at 1uM” value is reported as -4.65%.

For `Cc1cc(NC(=O)CCCC(=O)N(CC(=O)NC2CCCCC2)c2ccccc2)no1`, the “hERG current change (%, negative = inhibition) at 1uM” value was 7.05%. Take `CC(C)(C)c1ccc(S(=O)(=O)NCCc2ccncc2)cc1`: the “hERG current change (%, negative = inhibition) at 1uM” value came to 5.9%. Regarding `COc1ccc(Cc2n[nH]c(=S)n2C)cc1Br`, the “hERG current change (%, negative = inhibition) at 1uM” value amounted to 9.66%.

On to `CCCCC#Cc1ccc(C(=O)NNC(=O)Nc2ccccc2)o1`, for which the “hERG current change (%, negative = inhibition) at 1uM” value is recorded as 13.1%. With `CCCc1ccc2oc(C(=O)NCc3nnc(C)o3)c(C)c2c1`, the “hERG current change (%, negative = inhibition) at 1uM” value was 1.11%. With `CC1CCN(c2ccc(C(=O)NCCc3ccccc3)cn2)CC1` the figure was -5.16%; with `CC1=C(CC(=O)c2ccc(Cl)cc2)C(=O)c2ccccc2C1=O`, 5.7%; with `O=c1oc2ccccc2cc1-c1nc2ccccc2[nH]1`, 15.9%. With `CNC(C(=O)c1ccccc1)C(OC(C)C)c1ccc(Cl)cc1.[O-][Cl+3]([O-])([O-])O` (stereo not drawn) the figure was 0.598%; with `COc1ccccc1NC(=O)CSc1c2c(nc3ccccc13)CCC2`, 7.97%. In the case of `Cc1ccsc1-c1nc(-c2ccccc2)c(-c2ccccc2)[nH]1`, the “hERG current change (%, negative = inhibition) at 1uM” value is 19.8%. For `CCCNC(=S)N1CCC(NC(=O)c2ccc(C)cc2)CC1`, the “hERG current change (%, negative = inhibition) at 1uM” value came out at 11.3%. Consider `Cc1ccc(NC(=O)CCC(=O)N/N=C/C=C/c2ccccc2)cc1`, for which the “hERG current change (%, negative = inhibition) at 1uM” value turned out to be 7.57%. Regarding `CCN(CC)C(=O)/C(=C\c1ccc2c(c1)OCO2)NC(=O)c1ccc(Br)cc1`, the “hERG current change (%, negative = inhibition) at 1uM” value was -41.8%. As to `c1ccc(-c2c3ccccc3nc3[nH]c4ccccc4c23)cc1`, the “hERG current change (%, negative = inhibition) at 1uM” value worked out at 10.8%. Turning to `COc1ccc(C2CC3CC(c4ccccc4)N2O3)cc1` (stereo not drawn), the “hERG current change (%, negative = inhibition) at 1uM” value is on record as 3.09%.

In the case of `CCOc1ccc(NC(=O)CN(C)C(=O)c2ccccc2SCc2c(C)noc2C)cc1OCC`, the “hERG current change (%, negative = inhibition) at 1uM” value is reported as -10.8%.

For the compound `O=C(CNCc1ccco1)Nc1ccc(N2CCCCCC2)cc1.O=C(O)C(=O)O`, the “hERG current change (%, negative = inhibition) at 1uM” value was found to be 7.67%. As to `O=c1[nH][nH]c2cc(=O)n(-c3ccc(Cl)cc3)nc12`, the “hERG current change (%, negative = inhibition) at 1uM” value stood at 16%. In the case of `COc1ccc(N(CC(=O)NCC2CCCO2)C(=O)CCC(=O)Nc2nccs2)c(OC)c1` (stereo not drawn), the “hERG current change (%, negative = inhibition) at 1uM” value was 11.2%. The result for `O=C(/C=N/O)NCCCN1CCOCC1` reads 16.5%.
